Hit rate of the full screen: of about 310,000 compounds, about 2,200 (0.71%) showed an effect of 50% or more. Effects have a minus sign here. This is one part of the list.

This is an account of results in publication PMC4336329 (PLoS ONE, 2015).

For the assay, the target named is human ether-à-go-go-related gene (hERG) potassium channel (human, UniProt Q12809). Nature of the assay: primary screen, population patch clamp on CHO cells stably expressing hERG.
Sequence of human ether-à-go-go-related gene (hERG) potassium channel (Q12809 whole entry, looked up): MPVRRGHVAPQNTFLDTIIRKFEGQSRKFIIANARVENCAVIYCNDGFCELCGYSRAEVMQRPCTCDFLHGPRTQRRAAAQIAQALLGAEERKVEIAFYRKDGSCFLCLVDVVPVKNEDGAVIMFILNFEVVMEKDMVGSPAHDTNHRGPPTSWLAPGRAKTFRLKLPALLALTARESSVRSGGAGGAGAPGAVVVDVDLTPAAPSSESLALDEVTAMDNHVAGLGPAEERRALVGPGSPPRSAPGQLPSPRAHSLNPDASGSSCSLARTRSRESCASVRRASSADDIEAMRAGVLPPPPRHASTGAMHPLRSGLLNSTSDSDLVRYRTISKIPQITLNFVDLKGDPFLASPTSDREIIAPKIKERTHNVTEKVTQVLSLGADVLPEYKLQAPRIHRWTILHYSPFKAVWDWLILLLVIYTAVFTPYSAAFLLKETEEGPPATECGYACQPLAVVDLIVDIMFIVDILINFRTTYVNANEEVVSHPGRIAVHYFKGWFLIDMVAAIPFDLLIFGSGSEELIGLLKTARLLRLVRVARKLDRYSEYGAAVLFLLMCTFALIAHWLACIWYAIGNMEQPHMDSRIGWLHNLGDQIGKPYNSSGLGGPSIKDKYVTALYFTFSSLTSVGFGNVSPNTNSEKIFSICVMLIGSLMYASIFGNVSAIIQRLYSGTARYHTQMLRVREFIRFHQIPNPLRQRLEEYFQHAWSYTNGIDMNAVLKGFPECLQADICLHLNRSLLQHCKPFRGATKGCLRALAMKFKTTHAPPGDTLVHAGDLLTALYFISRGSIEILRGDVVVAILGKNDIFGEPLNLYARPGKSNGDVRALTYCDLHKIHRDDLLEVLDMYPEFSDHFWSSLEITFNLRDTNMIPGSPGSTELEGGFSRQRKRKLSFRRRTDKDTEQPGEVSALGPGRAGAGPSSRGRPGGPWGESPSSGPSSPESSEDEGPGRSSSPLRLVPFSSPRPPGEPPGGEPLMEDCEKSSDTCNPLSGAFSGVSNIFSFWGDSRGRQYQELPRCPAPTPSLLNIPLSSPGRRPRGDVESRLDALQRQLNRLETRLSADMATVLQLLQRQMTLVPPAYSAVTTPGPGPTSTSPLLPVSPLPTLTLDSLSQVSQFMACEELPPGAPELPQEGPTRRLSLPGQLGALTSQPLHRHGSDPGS
As for `COc1ccc2[nH]cc(CCNC(=O)COc3cc(C)cc4oc(=O)cc(C)c34)c2c1`, the “hERG current change (%, negative = inhibition) at 1uM” value worked out at 5.9%. The same measure for `CC1CC(CCC(=O)NC(=S)Nc2ccc(S(N)(=O)=O)cc2)C(=O)O1` (centres unmarked): 16.4%; for `CCC1(C)CC(CC(=O)O)(c2ccccc2OC)CCO1` (centres unmarked): 11.1%. Take `Cc1cccc(NC(=O)C2CC(O)CN2C(=O)OCc2ccccc2)c1` (centres unmarked): the “hERG current change (%, negative = inhibition) at 1uM” value is listed as 7.92%. The same measure for `CC(C)c1ccc(N(CC(=O)NCCc2ccccc2)C(=O)c2csnn2)cc1`: -9.14%; for `CCOC(=O)Cc1csc(NC(=O)c2sc3nc4ccc(CC)cc4cc3c2N)n1`: 14.3%; for `Cc1cc2ncn(CC(C)C)c2cc1C`: 10.1%. The figure for `CC(OC(=O)c1ccc(-n2cnnn2)cc1)C(=O)Nc1ccccc1[N+](=O)[O-]` (centres unmarked) is -3.03%.

With `Cc1ccc2[nH]c3ccccc3c(=O)c2c1`, the “hERG current change (%, negative = inhibition) at 1uM” value worked out at 4.4%. The same measure for `Cc1ccc2cccc(SCC(=O)Nc3ccc(F)cc3)c2n1`: 12%; for `COc1ccc(NC(=O)CSc2nncn2C)cc1`: 17.1%. As for `N#Cc1ccccc1Sc1ccccc1C(=O)OCC(=O)NC1CCCCC1`, the “hERG current change (%, negative = inhibition) at 1uM” value was 4.72%. For the molecule `Cc1ccc(S(=O)(=O)NCCC(=O)N2CCC(C(N)=O)CC2)cc1C`, the “hERG current change (%, negative = inhibition) at 1uM” value is given as -9.17%. The figure for `COc1cc(/C=C2/C(=O)N(C)C(=S)N2C)ccc1OCc1cccc(F)c1` is 15.3%; for `CN(CC1COc2ccccc2O1)C(=O)CSc1ncnc2sccc12` (centres unmarked) it is -1.12%.

For `O=C(Nc1ccncc1)c1ccc(Cl)c(Cl)c1`, the “hERG current change (%, negative = inhibition) at 1uM” value stood at 9.21%. The same measure for `O=[N+]([O-])c1ccc(N=Nc2c(Cl)cc(O)cc2Cl)cc1`: 6.86%.

On to `CS(=O)(=O)N(CCC(=O)O)Cc1ccccc1`, for which the “hERG current change (%, negative = inhibition) at 1uM” value was -1.19%.

As to `COc1ccc(C(=O)COC(=O)c2cc([N+](=O)[O-])ccc2N2CCOCC2)c(OC)c1`, the “hERG current change (%, negative = inhibition) at 1uM” value worked out at 7.74%.

For the molecule `O=[N+]([O-])c1nn(-c2ccc(Cl)cc2)n(O)c1=NCc1cccnc1`, the “hERG current change (%, negative = inhibition) at 1uM” value is reported as 9.32%. As for `COc1cc(S(=O)(=O)NC2CCCC2)ccc1-n1cnnn1`, the “hERG current change (%, negative = inhibition) at 1uM” value is given as 9.26%.

As for `CCNC(=O)/C(C#N)=C/c1c(N2CCOCC2)nc2ccccn2c1=O`, the “hERG current change (%, negative = inhibition) at 1uM” value stood at 9.75%. The same measure for `Cc1ccc(-n2nc(C)c3c(C)cc(=O)[nH]c32)cc1`: -11.2%; for `CCOc1ccc(NC(=O)N2CCN(CC)CC2)cc1`: 13.5%. Regarding `O=C(NC(=S)NCc1ccccc1)c1ccccc1[N+](=O)[O-]`, the “hERG current change (%, negative = inhibition) at 1uM” value is recorded as 8.17%. Turning to `COC(=O)C1=C(C)N(c2cc(C)cc(C)c2)/C(=C/c2ccco2)C1=O`, the “hERG current change (%, negative = inhibition) at 1uM” value stood at 12.2%.
